# Laboratory results from PMC4336329 (PLoS ONE, 2015).
# Screen size: about 310,000 compounds; about 2,200 (0.71%) showed an effect of 50% or more. The effect is printed as a negative number. Some of the results follow.
# Molecular target: human ether-à-go-go-related gene (hERG) potassium channel (human, UniProt Q12809)
# Experiment: primary screen, population patch clamp on CHO cells stably expressing hERG
# Sequence of human ether-à-go-go-related gene (hERG) potassium channel (Q12809 whole entry, looked up): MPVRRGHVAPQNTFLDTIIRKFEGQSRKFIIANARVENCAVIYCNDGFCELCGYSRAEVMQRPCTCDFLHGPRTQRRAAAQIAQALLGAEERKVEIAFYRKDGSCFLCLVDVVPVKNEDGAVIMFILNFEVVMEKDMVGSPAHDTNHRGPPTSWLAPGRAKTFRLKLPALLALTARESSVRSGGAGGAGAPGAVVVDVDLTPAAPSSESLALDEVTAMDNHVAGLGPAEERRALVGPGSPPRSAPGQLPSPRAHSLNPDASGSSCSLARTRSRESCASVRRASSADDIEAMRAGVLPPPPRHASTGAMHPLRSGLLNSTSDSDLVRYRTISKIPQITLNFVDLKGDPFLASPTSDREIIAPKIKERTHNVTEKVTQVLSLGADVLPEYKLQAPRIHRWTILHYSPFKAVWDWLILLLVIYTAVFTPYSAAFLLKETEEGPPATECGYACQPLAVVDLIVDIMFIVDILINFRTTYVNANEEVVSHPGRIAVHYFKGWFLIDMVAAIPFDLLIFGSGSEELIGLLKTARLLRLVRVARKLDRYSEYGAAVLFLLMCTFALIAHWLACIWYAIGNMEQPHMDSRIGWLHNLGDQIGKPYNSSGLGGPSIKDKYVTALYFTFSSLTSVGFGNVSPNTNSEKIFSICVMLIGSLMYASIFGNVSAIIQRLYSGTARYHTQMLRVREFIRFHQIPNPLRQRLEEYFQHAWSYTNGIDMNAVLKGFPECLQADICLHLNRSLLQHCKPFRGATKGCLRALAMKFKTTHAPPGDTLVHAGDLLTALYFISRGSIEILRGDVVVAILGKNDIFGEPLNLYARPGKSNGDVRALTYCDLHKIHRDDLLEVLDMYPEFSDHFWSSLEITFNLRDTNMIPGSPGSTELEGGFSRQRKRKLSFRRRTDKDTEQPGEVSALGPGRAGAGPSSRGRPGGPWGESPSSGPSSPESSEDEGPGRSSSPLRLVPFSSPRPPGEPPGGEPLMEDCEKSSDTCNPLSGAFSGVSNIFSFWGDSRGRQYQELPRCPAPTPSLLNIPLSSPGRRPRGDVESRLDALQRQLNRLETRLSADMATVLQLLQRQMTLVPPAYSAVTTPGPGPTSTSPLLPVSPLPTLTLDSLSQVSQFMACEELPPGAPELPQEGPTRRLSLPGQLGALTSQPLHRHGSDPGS
row,Structure (SMILES),"hERG current change (%, negative = inhibition) at 1uM [%]"
1,CCCC(=O)Nc1cccc(-c2nc3ccccc3c(=O)o2)c1,9.33
2,c1ccc(CCCNc2ncnc3nc[nH]c23)cc1,-2.14
3,CCOc1ccc(C2=NNC(c3cccs3)=Nc3ccc(OC)cc32)cc1,-17.2
4,CCOC(=O)c1cc2c(=O)n3ccccc3nc2n(Cc2ccco2)c1=NC(=O)c1ccc(OC)cc1,-7.26
5,CSc1nnc2c(n1)OC1(Nc3ccccc3-2)C(=O)Nc2ccccc21 (centres unmarked),11.9
6,COCCNC(=O)C(c1ccc(C)o1)N(C(=O)c1snc(C(N)=O)c1N)c1ccc(C)c(C)c1 (centres unmarked),6.02
7,CSc1cccc(NC(=O)c2c(Cl)cnn2C)c1,10.1
8,Cc1ccc2nc(-c3ccc(N4C(=O)CC(N5CCN(CCO)CC5)C4=O)cc3)sc2c1 (centres unmarked),4.5
9,NS(=O)(=O)OCCCc1ccc(C(F)(F)F)cc1,6.75
10,CC(=O)Oc1cccc(N2C(=O)C3C(C2=O)C2C=CC3C23CC3)c1 (centres unmarked),1.89
11,C/C(=N\NC(=O)c1cc2ccccc2cc1O)c1cccs1,17.7
12,COc1cc(OC)c2c(C)cc(=O)oc2c1C(CCN1CCOCC1)c1ccc2c(c1)OCO2 (centres unmarked),-14.2
13,CC#CCN(Cc1ccco1)C(=O)c1ccc(OC2CCN(Cc3ccccn3)CC2)cc1,-2.9
14,COC(=O)c1ccc(Nc2ccc3nonc3c2[N+](=O)[O-])cc1,19.1
15,CNC(=S)NNC(=O)CNc1ccc(C)c(Cl)c1,11.5
16,Cn1c(=O)n(C)c2cc(N3CCCC3)c(NC(=O)c3cccc(F)c3)cc21,10.3
17,c1coc(CNc2ncnc3nc[nH]c23)c1,21
18,CCOC(=O)CNC(=O)Cn1cnc2c(nnn2-c2cccc(OC)c2)c1=O,17.3
19,COc1ccc2sc(-c3ccc(SC)cc3)c(C#CC(C)(C)O)c2c1,12.3
20,COc1cccc(Cn2nnc(C(=O)Nc3cc(Cl)ccc3OC)c2N)c1,13
21,O=C(Cn1c(SCC(=O)N2CCCc3ccccc32)nc2ccccc21)N1CCCC1,-0.707
22,COc1ccc(C(=O)NNC(=S)NC(=O)c2cccc([N+](=O)[O-])c2)cc1,20.4
23,CCOc1ccc2c(CC)cc(=O)oc2c1OCC,0.0088

row,Structure (SMILES),"hERG current change (%, negative = inhibition) at 1uM [%]"
1,Cc1cc(C(=O)OCC(=O)c2ccc3c(c2)NC(=O)CO3)c2ccccc2n1,20.6
2,O=C(CCC(=O)c1ccc(F)cc1)Nc1ccccc1Cl,1.94
3,CCOc1ccc2nc(SCC(=O)NCc3ccco3)sc2c1,-15.8
4,COc1ccccc1-c1nc(C(N)=O)c2[nH]c(=O)n(-c3cccc(C)c3)c2n1,10.9
5,COc1ccc(S(=O)(=O)Nc2ccccc2C(=O)NC(C)C)cc1OC,18.9
6,COc1cc(OC)c(-n2c(C)cc(C=O)c2C)cc1Cl,-2
7,CN(C)S(=O)(=O)N1CCC(Oc2ccc(C(=O)N3CCCCCCC3)cc2)CC1,15.4
8,O=C(CN1C(=O)c2ccccc2C1=O)NC1CCCCC1,8.28
9,COC(=O)c1sccc1NC(=S)N1CCN(c2ccc(F)cc2)CC1,10.6
10,CCOC(=O)N1CCN(C(=O)CN(c2ccc(OC)cc2)S(C)(=O)=O)CC1,5.75
11,CC(C)Cn1c2nc3ccccc3nc2c2c(=O)n(CCN3CCOCC3)cnc21,-6.92
12,CCCCNC(=O)CSc1nc2ccsc2c(=O)n1CCCC(=O)NCCc1ccc(S(N)(=O)=O)cc1,5.18
13,O=C(c1ccc(NS(=O)(=O)c2cccs2)cc1)N1CCOCC1,13.8
14,CC1=C(C(=O)NCc2ccccc2)C(c2cccs2)NC(=S)N1 (centres unmarked),8.67
15,CCCCc1ccc(NC(=O)NCc2ccccn2)cc1,-10.7
16,Cc1ccc2c(CN3CCN(S(=O)(=O)c4ccccc4C(F)(F)F)CC3)cc(=O)oc2c1,-15.1
17,O=c1cc(CNC2CCCCC2)c2ccccc2[nH]1,14.6
18,O=C(NC1CCN(CCc2c[nH]c3ccccc23)CC1)c1ccccc1,-33.9
19,COCCn1c(N)c(C(=O)OCc2ccccc2)c2nc3ccccc3nc21,-0.574
20,Cc1ccc(C)c2nc3sc(C(=O)N4CCCc5ccccc54)c(N)c3cc12,-5.13
21,CC(=O)c1ccc(S(=O)(=O)NCCc2csc(-c3cccnc3)n2)cc1,11.4
22,CC(=O)N(c1ccccc1)C(C)c1nc(C#N)c(C#N)nc1C (centres unmarked),17.3
23,COC(=O)C1=CO[C@@H](OC2OC(CO)C(O)C(O)C2O)[C@@H]2C(CO)=CC[C@H]12 (some centres unmarked),13.2

row,Structure (SMILES),"hERG current change (%, negative = inhibition) at 1uM [%]"
1,CCOc1ccccc1NC(=O)CSc1c(C)n[nH]c1C,12.5
2,CC(C)N(Cc1nc(-c2ccc3c(c2)OCO3)no1)CC1CCC(=O)N1 (centres unmarked),8.63
3,COc1ccc(CN2C=C3C(=O)C(C)(OC(=O)C4CCCC4)C(=O)C=C3C=C2c2ccsc2)cc1 (centres unmarked),-2.57
4,CCC(C)(C)NC(=O)c1ccc(Br)o1,7.92
5,COc1cc(NS(=O)(=O)c2ccc(NC(=S)NC(=O)c3sc4ccccc4c3Cl)cc2)ncn1,5.38
6,COC(=O)C1=C(c2ccc(S(C)(=O)=O)cc2)C[C@@H]2CC[C@H]1N2C(=O)NCc1cccc2ccccc12,-45.5
7,COCC(C)NCc1cc(Br)ccc1OC.O=C(O)C(=O)O (centres unmarked),10.7
8,C#Cc1ccc(CN2CCC(C(=O)Nc3ccc(Oc4ccccc4)nc3)CC2)cc1,-8.69
9,CCc1ccc(C(=O)COC(=O)C(CCSC)NC(=O)c2ccccc2)cc1 (centres unmarked),7.2
10,Cc1[nH]c2ccc(Br)cc2c(=O)c1CN1CCCCCC1,-35.7
11,[Cl-].[NH3+]CCCn1c(C(=O)c2ccc(Cl)cc2)c2ccc([N+](=O)[O-])cc2[n+]1[O-],-47.1
12,O=c1c(Cl)c(NS(=O)(=O)c2ccccc2)cnn1-c1ccccc1,9.3
13,COc1ccc(CCN(C)C(=O)c2ccc(S(=O)(=O)NCc3ccco3)cc2)cc1OC,6.74
14,CCOCCCNC(=S)N1CCCN(c2nc3cc(C)cc(C)c3cc2C#N)CC1,-10.5
15,COc1ccc2no[n+]([O-])c2c1,14.2
16,CCN1C(=O)S/C(=C/c2ccc(Oc3ccc([N+](=O)[O-])cn3)c(OC)c2)C1=O,13.4
17,CCOc1ccc(NC(=S)Nc2ccc(Br)cc2Cl)cc1,16.4
18,CNc1ccccc1C(C)(C)c1cc(C)[nH]n1,14
19,CN(C)/C=C/c1onc(-c2ccccc2Cl)c1C#N,-0.69
20,O=C(NC1CCCCCC1)c1c(O)c2ccccc2[nH]c1=O,9.91
21,CC(NCCOc1ccccc1F)C(=O)Nc1ccc(S(N)(=O)=O)cc1 (centres unmarked),14.4
22,CCOc1ccccc1NC(=O)CSc1nnc2ccc(-c3cccnc3)nn12,-0.807
23,CC1(C2CC2)NC(=O)N(CC(=O)Nc2ccc(F)cc2F)C1=O (centres unmarked),6.81

row,Structure (SMILES),"hERG current change (%, negative = inhibition) at 1uM [%]"
1,CN1CCN(c2ccccc2NC(=O)COc2ccccc2)CC1,-15.7
2,O=C(Nc1nc(-c2cc(Cl)sc2Cl)cs1)c1ccccc1,13.5
3,S=C(NCc1cccc(Cl)c1)NC1CCCCC1,4.14
4,Cc1cc(C)nc(NC(=O)/C=C/c2ccc3c(c2)OCO3)c1,10.5
5,Cc1ccc(S(=O)(=O)NNC(=O)c2cccs2)c(C)c1,10.1
6,Cc1ccc(Nc2nnc(SC(C)C(=O)NC3CC3)s2)cc1 (centres unmarked),5.27
7,COC(/C(=N/O)c1ccc(Cl)cc1)c1ccccc1 (centres unmarked),11.1
8,O=C1c2ccccc2C(Nc2ccc(S(=O)(=O)N3CCCCC3)cc2)N1Cc1ccco1 (centres unmarked),0.0423
9,C=C1SC(=Nc2ccccc2Cl)N(C(=O)c2sc3ccccc3c2Cl)C1(C)C,6.88
10,O=C(NCCCN1CCCC1=O)c1ccccc1NS(=O)(=O)c1ccc(Br)cc1,14.1
11,c1ccc(-n2ncc3c(NCc4cccs4)ncnc32)cc1,10.3
12,Cc1ccccc1CN1CCN(CC2CC3C=CC2C3)CC1 (centres unmarked),11.9
13,O=C(O)CCn1[nH]c(=O)c2ccccc2c1=O,12.1
14,O=c1[nH]c(-c2ccncc2)nc2ccccc12,-1.9
15,Cc1ccc(S(=O)(=O)N2CCC(C(=O)OCC(=O)NCCc3ccccc3)CC2)cc1C,4.85
16,COc1ccc(/C=C(\NC(=O)c2ccc(C)cc2)C(=O)N2CCCCC2)cc1,-5.56
17,Cc1ccc(N2CCN(c3ncccc3[N+](=O)[O-])CC2)c(C)c1,17.2
18,Cc1ccc(-n2ncc3c(=O)n(CC(N)=O)cnc32)cc1C,19.1
19,Cc1ccc(/C(N)=N/OC(=O)c2cccc(F)c2)cc1,5.54
20,CCOC(=O)N1CCC(NC(=O)CCc2nc(-c3ccc(C)cc3)no2)CC1,1.99
